Measurements: PubChem BioAssay AID1030 (National Center for Advancing Translational Sciences (NCATS), 2008)
Among all 220,000 compounds or so, about 16,000 (7.3%) were called active. The inconclusive results got no clear call from the source; some entries with a clear call stand among them for comparison. Calls come from the whole dose curve; as a rule, active = well fitted inhibition curve with a large enough effect (not every such curve was filed as active); inconclusive = small, poorly fitted or top-dose-only effect, or another doubt; inactive = no such curve, though single readings can be large or run the other way. Potencies beside an inconclusive call are fits to weak or partial responses and may not hold up.

The compounds below were run against Aldehyde dehydrogenase 1A1 (Homo sapiens) (UniProt P00352) (assay: qHTS Assay for Inhibitors of Aldehyde Dehydrogenase 1 (ALDH1A1)). Details: Purified ALDH1A1, NADH fluorescence, propionaldehyde substrate; series mostly up to 75.3 µM; activity, negative = inhibition: at the top concentration.
UniProt P00352, sequence (P00352 whole entry, looked up): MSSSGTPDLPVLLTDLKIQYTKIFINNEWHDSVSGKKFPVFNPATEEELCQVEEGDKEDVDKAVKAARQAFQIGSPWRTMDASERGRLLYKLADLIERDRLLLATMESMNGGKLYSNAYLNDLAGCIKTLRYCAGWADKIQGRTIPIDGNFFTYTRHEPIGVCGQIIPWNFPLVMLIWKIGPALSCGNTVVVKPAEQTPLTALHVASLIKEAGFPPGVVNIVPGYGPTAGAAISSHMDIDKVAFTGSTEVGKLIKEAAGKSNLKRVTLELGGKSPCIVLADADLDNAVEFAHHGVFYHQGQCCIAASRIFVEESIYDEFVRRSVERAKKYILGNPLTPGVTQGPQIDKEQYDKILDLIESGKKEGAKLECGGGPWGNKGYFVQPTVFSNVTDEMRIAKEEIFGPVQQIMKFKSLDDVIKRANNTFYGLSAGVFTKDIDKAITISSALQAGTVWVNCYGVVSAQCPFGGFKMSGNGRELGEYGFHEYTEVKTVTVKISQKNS
Potency is the fitted concentration of half-maximal effect; tags give direction and shape of the fitted curve.
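Throughout, for activity, negative = inhibition: plate controls were no enzyme wells and a reference inhibitor.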

Potency, inconclusive:
O=C(c1ccco1)N1CCN(Cc2cccc([N+](=O)[O-])c2)CC1 39.8 µM [inhibitor, single point]
O=C(Nc1nnc(CSCc2ccc(F)cc2)s1)c1ccc([N+](=O)[O-])cc1 25.1 µM [inhibitor, single point]
Cc1occc1C(=O)NN=C1C2CC3CC(C2)CC1C3 39.8 µM [inhibitor, single point]
COC(=O)c1sc(N)c(C(=O)OC)c1COC(=O)C1CC(=O)N(Cc2ccco2)C1 (stereo unspecified) 3.16 µM [inhibitor, partial curve]
CCCn1c(-c2ccc(F)cc2)nc2c(NC(C)CN(C)C)nc(C)nc21 (stereo unspecified) 28.2 µM [inhibitor, partial curve]
CC(Sc1sc(=S)sc1SC(C)C(=O)O)C(=O)O (stereo unspecified) 39.8 µM [inhibitor, single point]
CC(C)(C)c1cc(C(c2cccnc2)N2CCN(CCO)CC2)cc(C(C)(C)C)c1O (stereo unspecified) 39.8 µM [inhibitor, single point]
CC(=O)C1=NN(c2ccccc2)C(c2ccc3c(c2)OCO3)N1c1ccccc1 (stereo unspecified) 20 µM [inhibitor, partial curve]
O=C(c1ccccc1)c1ccc(OCC(O)CN2CCN(Cc3ccccc3)CC2)cc1 (stereo unspecified) 35.5 µM [inhibitor, partial curve, poor fit]
CNc1ncnc2ccc(-c3ccccc3C#N)cc12 20 µM [inhibitor, partial curve]

Potency, active:
CCC1CCCCN1C(=O)COc1ccccc1NC(C)=O (stereo unspecified) 3.55 µM
COc1ccc2nc(SCC(=O)N(C)C3CCCCC3)c(C#N)cc2c1 25.1 µM
O=C(O)/C=C/C(=O)NNC(=O)c1ccccc1Br 11.2 µM
COc1ccc(CN(CC2CCC(C(=O)O)CC2)C(=S)Nc2cc(C)ccc2C)cc1 (stereo unspecified) 3.55 µM
Cc1ccc(S(=O)(=O)N(C)C)cc1NC(=O)/C=C/c1cccs1 0.447 µM
CCOC(=O)c1ccc(NC(=O)CSCCC(=O)O)cc1 31.6 µM
COc1ccc(NC(=O)N2CCc3nc(-c4ccc(OC)cc4C)c4c(c3C2)CO[C@@H](c2ccccc2)C4)cc1 3.98 µM
COc1ccc(C(=O)/C=C/Nc2cccc(O)c2)cc1 11.2 µM
O=c1c2ccccc2sn1-c1ccc(S(=O)(=O)N2CCCC2)cc1 0.891 µM

activity, negative = inhibition, inactive:
CCOC(=O)C1CCN(C(=O)c2ccccc2N(C)S(=O)(=O)c2ccccc2)CC1 5.9%
Cc1ccc2c(C)nc(NC3=NCN(CCc4ccccc4)CN3)nc2c1 12.7%
